# Measurements as given in PubChem BioAssay AID1347165 (National Center for Advancing Translational Sciences (NCATS), 2019).
# In all, about 220,000 compounds went through this assay and about 5,700 (2.6%) were called active. Inconclusive means that the source gave no clear call. Such entries were picked first, then a sample of the others. Calls follow the shape of the dose curve; as a rule, active = well fitted inhibition curve with a large enough effect; inconclusive = small, poorly fitted or top-dose-only effect; inactive = no such curve, though single readings can be large or run the other way. A potency beside an inconclusive call is a rough fit, not a confirmed value.
# Target: Lysine-specific demethylase 5B (Homo sapiens) (UniProt Q9UGL1)
# Chain of UniProt Q9UGL1 (Q9UGL1 whole entry, looked up): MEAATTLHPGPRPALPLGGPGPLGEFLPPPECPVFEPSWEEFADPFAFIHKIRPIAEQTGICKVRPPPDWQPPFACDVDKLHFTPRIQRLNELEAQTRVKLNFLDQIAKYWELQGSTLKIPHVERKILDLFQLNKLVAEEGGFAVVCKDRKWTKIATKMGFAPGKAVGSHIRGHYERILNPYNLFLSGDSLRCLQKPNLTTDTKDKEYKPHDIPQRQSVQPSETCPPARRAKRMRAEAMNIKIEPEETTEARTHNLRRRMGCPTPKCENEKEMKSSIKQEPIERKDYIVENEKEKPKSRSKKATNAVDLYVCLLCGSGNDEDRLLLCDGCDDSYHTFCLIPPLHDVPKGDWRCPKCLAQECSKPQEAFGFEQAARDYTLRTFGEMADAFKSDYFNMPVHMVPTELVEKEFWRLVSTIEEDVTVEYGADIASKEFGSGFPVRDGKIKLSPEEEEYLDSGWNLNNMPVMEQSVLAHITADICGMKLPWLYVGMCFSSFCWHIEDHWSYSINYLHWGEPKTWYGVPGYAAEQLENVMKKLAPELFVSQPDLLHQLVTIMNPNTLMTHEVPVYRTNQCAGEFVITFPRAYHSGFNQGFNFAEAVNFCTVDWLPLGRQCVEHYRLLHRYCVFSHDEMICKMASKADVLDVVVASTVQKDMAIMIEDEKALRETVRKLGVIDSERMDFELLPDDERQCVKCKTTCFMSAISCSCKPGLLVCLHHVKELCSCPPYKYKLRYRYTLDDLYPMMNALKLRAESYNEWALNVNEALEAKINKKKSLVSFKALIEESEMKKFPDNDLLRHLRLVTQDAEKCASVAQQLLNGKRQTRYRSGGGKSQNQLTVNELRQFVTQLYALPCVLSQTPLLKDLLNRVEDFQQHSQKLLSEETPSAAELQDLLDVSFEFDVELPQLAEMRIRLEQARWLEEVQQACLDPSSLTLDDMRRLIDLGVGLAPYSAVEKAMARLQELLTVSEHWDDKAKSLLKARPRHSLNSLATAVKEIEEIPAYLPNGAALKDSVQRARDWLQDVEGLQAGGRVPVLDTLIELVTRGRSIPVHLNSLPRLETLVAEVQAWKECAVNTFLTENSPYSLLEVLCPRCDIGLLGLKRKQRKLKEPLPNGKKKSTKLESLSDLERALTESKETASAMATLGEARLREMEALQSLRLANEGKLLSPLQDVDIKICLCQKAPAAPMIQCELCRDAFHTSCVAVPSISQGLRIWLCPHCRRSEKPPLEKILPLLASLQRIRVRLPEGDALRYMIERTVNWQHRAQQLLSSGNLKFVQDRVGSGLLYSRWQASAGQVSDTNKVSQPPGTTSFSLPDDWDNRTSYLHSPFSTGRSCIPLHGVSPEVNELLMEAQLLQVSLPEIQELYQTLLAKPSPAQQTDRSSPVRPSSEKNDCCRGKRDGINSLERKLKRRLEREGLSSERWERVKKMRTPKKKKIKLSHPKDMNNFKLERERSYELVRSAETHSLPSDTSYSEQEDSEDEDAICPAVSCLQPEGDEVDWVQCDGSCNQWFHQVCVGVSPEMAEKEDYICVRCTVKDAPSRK
# Test: Primary screen for KDM5B Histone Demethylases FDH-coupled qHTS; also: nearly all actives have a fitted effect of over 70% in size; as to activity change, negative = inhibition: 0% is about no effect
# Conditions: FDH-coupled NADH fluorescence (FDH is formaldehyde dehydrogenase); activity change, negative = inhibition: at 57.7 µM (top of the series) unless noted
# Method in brief: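 Coupled FDH/NAD⁺ fluorescence readout. KDM5BΔAP 200 nM final; compound titration, 10 min RT preincubation; substrate mix 12.5 µM H3K4me3, 25 µM 2-OG, 50 µM Fe(II), 100 µM ascorbate, 0.25 mM NAD⁺, 0.25 U/mL FDH; ΔRFU over 30 min.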
# Potency is read from the fitted curve at half-maximal effect; tags tell the direction and shape of the fitted curve.
SMILES,Potency,"activity change, negative = inhibition"
COC(=O)c1c(NC(=O)Cc2coc3ccc(C(C)C)cc23)sc2c1CCC2,"inconclusive: 3.16 µM [inhibitor, full curve, poor fit]",
CC1=C[C@@H](CNC(=O)c2cnccn2)[C@H](C(C)C)C[C@H]1Cc1nc2ccc(F)cc2[nH]1,"inconclusive: 28.2 µM [inhibitor, partial curve, poor fit]",
Cc1noc([C@@H]2CN(Cc3cccc(Cl)c3)C[C@H]2CO)n1,inactive,
Cc1cccc(C(=O)n2nc(-c3cccnc3)nc2NCc2ccccc2)c1,inactive,
COc1ccc(-c2ccc(C#N)c(SCC(=O)Nc3cc(OC)ccc3OC)n2)cc1,inactive,
C=CCn1c(N2CCN(Cc3ccc(Cl)cc3)CC2)nc2c1c(=O)[nH]c(=O)n2C,inactive,
CCc1nn(CC(=O)N(C)Cc2ccccc2)c(=O)c2cc3sccc3n12,"inconclusive: 1.26 µM [inhibitor, partial curve, poor fit]",
Cc1ccc(CSCCC(=O)NCc2ccc(F)cc2Cl)cc1,,inconclusive: -33.4% [inhibitor]
CCOc1ccc(C(=O)c2oc3ccccc3c2NC(=O)c2cc(-c3ccc(Cl)cc3)on2)cc1,inactive,
CN(Cc1ccccc1)c1ncnc2c1nnn2C,"inconclusive: 35.5 µM [inhibitor, single point]",
O=C(CS(=O)(=O)Cc1ccccc1)Nc1ccc(F)cc1,inactive,
COc1ccc(CC(=O)N2CCC(Cc3nc(-c4ccccc4)no3)CC2)cc1Cl,inactive,
CCS(=O)(=O)c1ncc(Cl)c(C(=O)Nc2ccccc2)n1,"inconclusive: 15.8 µM [inhibitor, partial curve, poor fit]",
C[C@H]1[C@@H]2[C@@H](O)C([C@H](C)C(=O)NCc3cccs3)CC[C@@]2(C)CC[C@@H]1NC(=O)c1cnccn1 (some centres not stated),"inconclusive: 28.2 µM [inhibitor, single point]",
Cc1cc(O)c(C(=O)/C=C/c2ccc(Cl)cc2)c(=O)o1,"inconclusive: 28.2 µM [inhibitor, single point]",
COc1cc(Cl)c(NS(=O)(=O)c2cc(-c3cc(C)no3)ccc2OC)c(OC)c1,"inconclusive: 2.24 µM [inhibitor, full curve, poor fit]",
COc1ccccc1-c1nc(C(=O)N2CCC(C#N)CC2)n2ccccc12,active: 28.2 µM,
CN1c2cc(C(=O)Nc3ccc(F)cc3)ccc2C(=O)N2CCCCC21 (configuration not stated),"inconclusive: 25.1 µM [inhibitor, partial curve, poor fit]",
Clc1ccccc1Nc1nc(-c2ccncc2)nc2ccccc12,"inconclusive: 39.8 µM [inhibitor, single point]",
CN(C)C[C@@H]1CN(c2ncccn2)C[C@H]1NC(=O)c1ccc2[nH]ccc2c1,active: 31.6 µM,
Cc1cc(C)n(-c2nc(-c3ccccc3)cc(=O)n2CC(=O)Nc2cccc(C)c2C)n1,inactive,
O=C(N1CCC(c2nc(C3CCOCC3)no2)C1)C1(c2ccccc2)CC1 (configuration not stated),"inconclusive: 31.6 µM [inhibitor, single point]",
COC(=O)c1[nH]c(C)c(/C(O)=C2\C(=O)C(=O)N(CCCn3ccnc3)C2c2ccc(Cl)cc2)c1C (configuration not stated),"inconclusive: 39.8 µM [inhibitor, single point]",

SMILES,Potency,"activity change, negative = inhibition"
CCn1ncc(NC(=O)Cn2ncc3cc(-c4ccc(C)cc4F)ccc32)n1,"inconclusive: 25.1 µM [inhibitor, single point]",
CCC(/C=N/NC(N)=O)=C\c1ccccc1,inactive,
CC(=O)N1CCC2(CC1)CC(=O)c1ccc(OCC(=O)NC3Cc4ccccc4C3)cc1O2,inactive,
CCc1noc(-c2cccn3c(CNC(=O)c4cc(Cl)ccc4F)nnc23)n1,active: 28.2 µM,
CN(C)c1ccc2ncc(Nc3cccc(C(F)(F)F)c3)n2n1,"inconclusive: 35.5 µM [inhibitor, partial curve, poor fit]",
CCN(CC)Cc1cnc2c(C(=O)NC(C)c3ccccc3)cnn2c1 (configuration not stated),"inconclusive: 20 µM [inhibitor, partial curve, poor fit]",
CCc1c(C(=O)Nc2ccc(OC)cc2OC)csc1C,inactive,
COc1ccccc1OCc1cc(C(=O)NCC2COCCO2)n[nH]1 (configuration not stated),inactive,
CCOc1cc(-c2ccc(OC(=O)c3ccc(OC)cc3)c(OC)c2)cc(=O)c2c(C)oc(C)c12,"inconclusive: 12.6 µM [inhibitor, partial curve, poor fit]",
Cc1cc(C(=O)N2[C@@H]3CC[C@H]2CC(NC(=O)c2ccncc2)C3)nn1C (some centres not stated),inactive,
CCn1nc(C)c2c(-c3ccccc3)cc(=O)n(C(C)C(=O)NCCc3ccc(OC)c(OC)c3)c21 (configuration not stated),"inconclusive: 25.1 µM [inhibitor, partial curve, poor fit]",
COc1ccc(-c2nc(C)nc3c2CN(C(=O)c2ccccc2)CC3)cc1,"inconclusive: 25.1 µM [inhibitor, single point]",
COc1ccc(S(=O)(=O)c2cc3ccc(OC)cc3oc2=O)cc1,"inconclusive: 25.1 µM [inhibitor, partial curve, poor fit]",
CCOc1ccc(C(=O)Nc2ccccc2N2CCN(C(=O)c3ccccc3)CC2)cc1,"inconclusive: 22.4 µM [inhibitor, single point]",
CCOC(=O)c1cc(-c2ccc(F)cc2)n(CCC(=O)Nc2nc3ccc(OC)cc3s2)c1C,"inconclusive: 1.26 µM [inhibitor, full curve, poor fit]",
O=C(CSc1nnc2ccccn12)c1cccc(Cl)c1,"inconclusive: 28.2 µM [inhibitor, partial curve, poor fit]",
COc1ccc(S(=O)(=O)NCC2CCCO2)cc1NC(=O)c1ccccc1F (configuration not stated),"inconclusive: 39.8 µM [inhibitor, partial curve, poor fit]",
CC12CC3(C)CC(CC(=O)O)(C1)CC(CC(=O)O)(C2)C3,inactive,
COc1ccc(-c2nn(-c3ccccc3)cc2C2NC(=O)NC(C)=C2C(=O)OC(C)C)cc1Cl (configuration not stated),"inconclusive: 3.98 µM [inhibitor, full curve, poor fit]",
CCCOc1ccc(-c2c(C(=O)N/N=C/c3ccc(C)cc3)nnn2-c2nonc2N)cc1,"inconclusive: 39.8 µM [inhibitor, single point]",
COc1cccc(C(=O)N2CCCCC2c2nc(-c3cnccn3)n[nH]2)c1 (configuration not stated),"inconclusive: 15.8 µM [inhibitor, partial curve, poor fit]",
COc1ccc(NCc2cc3cc4c(cc3n(CC(=O)Nc3ccc(C)c(C)c3)c2=O)OCO4)cc1,"inconclusive: 1.12 µM [inhibitor, full curve, poor fit]",
COC(=O)C1=CN(CC(=O)Nc2ccc(F)cc2)S(=O)(=O)N=C1C,inactive,

SMILES,Potency,"activity change, negative = inhibition"
NC1CCc2nn(CC(=O)NCc3ccc(F)cc3Cl)c(=O)n2CC1 (configuration not stated),inactive,
CCn1cc(C(=O)N2CCN(C)CC2c2ccccc2)c2ccccc21 (configuration not stated),inactive,
Cc1cccc(N2CCN(C(=O)CS(=O)(=O)c3cccc4nsnc34)CC2C)c1 (configuration not stated),"inconclusive: 14.1 µM [inhibitor, partial curve, poor fit]",
O=c1cc(C(O)C[N+](=O)[O-])occ1OCc1ccccc1 (configuration not stated),"inconclusive: 35.5 µM [inhibitor, partial curve, poor fit]",
COc1ccc(C2C(C#N)=C(N)Oc3n[nH]c(C)c32)cc1COc1cc(C)c(Cl)c(C)c1 (configuration not stated),inactive,
CN1CC(=O)N(c2ccccc2F)Cc2c1ncnc2N1CCOCC1,inactive,
CN(C)c1ccc(/C=N/NC(=O)c2ccc(N(C)C)cc2)cc1,"inconclusive: 1.78 µM [inhibitor, partial curve, poor fit]",
CCCNC(=O)c1ccc(-n2c(-c3ccccc3)cc3c2CCC(C)C3)cc1 (configuration not stated),"inconclusive: 28.2 µM [inhibitor, partial curve, poor fit]",
Cn1nc(C(=O)N2CCN(c3ccc(O)cc3)CC2)c2ccccc2c1=O,inactive,
O=c1oc2ccc(Br)cc2cc1-c1csc(-c2ccc(Cl)cc2)n1,"inconclusive: 28.2 µM [inhibitor, single point]",
O=C(Nc1ccccc1)N[C@H]1C[C@H]2C(=O)NC[C@@H](CCC(=O)N3CCc4ccccc43)N2C1,"inconclusive: 39.8 µM [inhibitor, partial curve, poor fit]",
CC(C)N1C(=O)CO[C@H]2CCN(Cc3cccc(C#N)c3)CC[C@@H]21,inactive,
COc1ccc(CCNC(=O)c2ccc3c(c2)N(Cc2ccccc2)C(=O)CS3=O)cc1OC (configuration not stated),inactive,
CCCC1C=CCN1C(=O)c1coc(CN2CCN(c3ccccc3F)CC2)n1 (configuration not stated),"inconclusive: 14.1 µM [inhibitor, single point]",
N#Cc1cccc(CN2Cc3[nH]cnc3C[C@H]2C(=O)NCc2ccco2)c1,active: 31.6 µM,
Cc1cc(-c2cccc(OCCn3ccnc3)c2)ccn1,"inconclusive: 31.6 µM [inhibitor, partial curve, poor fit]",
COCC(=O)N[C@@H]1CN(C(=O)c2cc3ccccc3[nH]2)CC[C@@H]1CO,inactive,
CN1C[C@H](NCc2ccc(F)cc2)CCC[C@@H](C(=O)NC2CC2)CC1=O,inactive,
COc1ccc(CC(=O)N2CCCN(c3cc(-c4ccc(F)cc4)[nH]n3)CC2)cc1,"inconclusive: 17.8 µM [inhibitor, partial curve]",
CCN(CC)CCNC(=O)c1ccc(Cn2c(=O)c3cccn3c3cccnc32)cc1,"inconclusive: 25.1 µM [inhibitor, single point]",
CN(C)S(=O)(=O)c1ccc2c(c1)N(CC(=O)N1CCN(c3ccc(F)cc3)CC1)CCS2,"inconclusive: 4.47 µM [inhibitor, full curve, poor fit]",
